# In paper PMC4336329 (PLoS ONE, 2015):
# The campaign covered roughly 310,000 compounds. About 14,000 (4.5%) showed an effect of 50% or more. Effects have a minus sign here. This is one part of the list.
# Target: human ether-à-go-go-related gene (hERG) potassium channel (human, UniProt Q12809)
# Test: primary screen, population patch clamp on CHO cells stably expressing hERG
# 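Further: peak tail current of the secondary pulse compared with the same well before compound.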
# human ether-à-go-go-related gene (hERG) potassium channel, sequence (Q12809 whole entry, looked up): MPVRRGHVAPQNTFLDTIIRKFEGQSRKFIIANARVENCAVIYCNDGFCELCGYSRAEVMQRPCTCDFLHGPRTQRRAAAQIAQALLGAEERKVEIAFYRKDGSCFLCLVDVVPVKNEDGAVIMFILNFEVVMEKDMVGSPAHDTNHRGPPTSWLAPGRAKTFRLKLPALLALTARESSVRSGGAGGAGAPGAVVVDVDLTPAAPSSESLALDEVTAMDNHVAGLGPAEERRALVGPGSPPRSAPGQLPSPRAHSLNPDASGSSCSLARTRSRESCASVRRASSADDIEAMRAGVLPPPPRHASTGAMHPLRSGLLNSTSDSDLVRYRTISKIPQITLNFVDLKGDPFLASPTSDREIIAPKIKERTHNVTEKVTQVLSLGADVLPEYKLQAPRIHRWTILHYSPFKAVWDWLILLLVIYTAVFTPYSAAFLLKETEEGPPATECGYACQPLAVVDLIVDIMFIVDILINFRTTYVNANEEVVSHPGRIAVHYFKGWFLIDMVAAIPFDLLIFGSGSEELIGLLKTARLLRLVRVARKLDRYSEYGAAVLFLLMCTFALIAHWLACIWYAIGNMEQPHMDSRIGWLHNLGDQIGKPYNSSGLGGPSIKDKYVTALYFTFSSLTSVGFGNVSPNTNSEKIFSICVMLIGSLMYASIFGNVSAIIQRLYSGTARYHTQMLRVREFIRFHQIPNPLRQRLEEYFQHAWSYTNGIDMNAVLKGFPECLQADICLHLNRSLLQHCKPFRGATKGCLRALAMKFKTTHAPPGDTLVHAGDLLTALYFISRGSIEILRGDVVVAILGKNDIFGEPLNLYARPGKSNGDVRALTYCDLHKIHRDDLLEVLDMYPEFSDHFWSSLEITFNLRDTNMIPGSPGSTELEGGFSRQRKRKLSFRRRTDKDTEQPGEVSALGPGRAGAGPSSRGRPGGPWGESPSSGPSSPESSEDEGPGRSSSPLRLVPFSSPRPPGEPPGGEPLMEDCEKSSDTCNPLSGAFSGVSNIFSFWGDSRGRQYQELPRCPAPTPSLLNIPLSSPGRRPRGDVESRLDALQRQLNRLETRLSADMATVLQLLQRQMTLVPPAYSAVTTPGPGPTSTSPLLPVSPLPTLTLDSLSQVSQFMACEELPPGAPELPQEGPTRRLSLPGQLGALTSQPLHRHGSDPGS
row,SMILES,"hERG current change (%, negative = inhibition) at 10uM"
1,CCCN(CCC)Cc1c(C(=O)N/N=C/c2ccc(C)o2)nnn1-c1nonc1N,6.29%
2,O=C(c1ccccc1)C1CN(c2ccccc2)CC1c1ccc(Cl)cc1 (centres unmarked),27.1%
3,CCCCn1c(N)c(N(CC(C)C)C(=O)c2cc(=O)[nH]c3ccccc23)c(=O)[nH]c1=O,3.49%
4,CC(C)CC(=O)NCC(C)NC(=O)CC(C)C (centres unmarked),3.51%
5,O=C(NC1CCCc2ccccc21)C1CCC(CNS(=O)(=O)c2cccc3nsnc23)CC1 (centres unmarked),-4.65%
6,CC(C)(C)c1cc(CCC(=O)NCC2CCCO2)cc(C(C)(C)C)c1O (centres unmarked),12.6%
7,O=c1[nH]c2ccc(NC(=S)NCCc3ccccc3)cc2[nH]1,5%
8,CCOC(=O)Nc1nc(C)c(C(=O)c2ccc(Cl)cc2)s1,22.8%
9,COc1ccc(OC)c(C(c2nnnn2C2CCCC2)N2CCc3ccccc3C2)c1 (centres unmarked),-11.1%
10,O=C1C2CCCN2C(c2ccccc2F)N1c1ccc(Cl)cc1 (centres unmarked),3.77%
11,N#Cc1ccccc1S(=O)(=O)Nc1ccc2c(c1)OCCO2,10.5%
12,CC(C)CC(=O)O/N=C1\C(=O)N(c2ccccc2)c2ccccc21,28.7%
13,CC(=O)c1c(C)nc(-c2ccc3c(c2)OCO3)n1O,0.643%
14,Cc1cc(OC(=O)c2cccc([N+](=O)[O-])c2)c(C)cc1CN1CCOCC1,-3.33%
15,O=C(N/N=C/c1ccc([N+](=O)[O-])o1)C(O)c1ccccc1 (centres unmarked),-0.231%
16,N#Cc1ccccc1-n1c(N)c(C(=O)N2CCCC2)sc1=S,-7.44%
17,O=c1ccc(S(=O)(=O)N2CCC(Cc3ccccc3)CC2)c[nH]1,-1.29%
18,CC(=O)Nc1ccc(S(=O)(=O)Nc2nc3ccccc3nc2Nc2ccc(O)cc2)cc1,-12.2%
19,Cc1ccsc1C(=O)C1CCCN(Cc2cc(F)ccc2-n2cccn2)C1 (centres unmarked),-82.9%
20,CCOC(=O)c1ccccc1NC(=O)CSc1nnc(C(C)C)n1CC,-9.02%
21,CCCCCN(C(=O)CCC(=O)OCCOc1ccc(OC)cc1)c1c(N)n(CCCC)c(=O)[nH]c1=O,-27.5%
22,O=C(CN1C(=O)C(=O)c2ccccc21)OCN1C(=O)c2ccccc2C1=O,16.5%

row,SMILES,"hERG current change (%, negative = inhibition) at 10uM"
1,Cc1ccc(C)c(S(=O)(=O)N2CCC3(CC2)OCCN3S(=O)(=O)c2cccs2)c1,5.64%
2,CC(=O)Nc1ccc(S(=O)(=O)NC2(C(F)(F)F)C(=O)Nc3c2c(=O)n(C)c(=O)n3C)cc1 (centres unmarked),3%
3,COc1ccc(OC)c(N(CC(=O)NCCSCc2ccc(C)cc2)S(C)(=O)=O)c1,-6.1%
4,CC1(C)C(N(O)C(=O)Nc2ccc(Cl)cc2)N(c2ccc(Cl)cc2)C(=O)N1CC(=O)NN (centres unmarked),-14.6%
5,COC(=O)c1nn(-c2ccc(OC)cc2)c(=O)cc1Oc1cccc(Cl)c1,-10.9%
6,CNS(=O)(=O)c1cn(CC(=O)NCc2ccc(OC)cc2)cc1S(=O)(=O)NC,-0.325%
7,OCCOCCn1c(C(CO)Nc2nc(-c3cccc(Br)c3)cs2)nc2ccccc21 (centres unmarked),-12.5%
8,Cc1ccc(C)c(C(=O)CSc2nnnn2C(C)C)c1,-2.72%
9,CCOC(=O)c1c(C)nc2sc3c(c2c1-c1ccc(OC)cc1)NC(c1ccccc1)NC3=O (centres unmarked),7.86%
10,N#CC(C#SN)=C1CCCCC1,10.2%
11,CCC(=O)NC(O)C(=O)c1ccc(C)cc1 (centres unmarked),8.86%
12,COCCn1c(C)cc(C(=O)CSc2nc3ccccc3c(=O)[nH]2)c1C,-2.4%
13,Cc1ccc(C(=O)Nc2cc(C(C)C)c(O)c(C(C)C)c2)cc1,-4.12%
14,O=C(O)CC(NC(=O)/C(=C/c1ccccc1)NC(=O)c1ccccc1)c1ccccc1 (centres unmarked),18.1%
15,Cc1cc(C)cc(-n2nnc(C(=O)NCc3ccc(Cl)cc3)c2N)c1,6.02%
16,CCCNC(=O)NC(=O)COC(=O)CC(NC(N)=O)c1ccc(Cl)cc1 (centres unmarked),8.28%
17,CCN1C(=O)C2C(C1=O)N1C(c3ccccc3)C3C(=O)N(CC)C(=O)C3N1C2c1ccccc1 (centres unmarked),11.1%
18,COC(=O)c1ccc(NC(=O)CN(C2CCCCC2)S(C)(=O)=O)cc1,-6.05%
19,CCOc1cc(C2NCc3ccccc3-n3cccc32)ccc1OC.Cl (centres unmarked),-8.09%
20,NC(=O)C1(N2CCCCC2)CCN(C(=O)c2ccc(C#CC3(O)CCCCC3)cc2)CC1,-6.21%
21,O=C1c2ccccc2C(=O)N1Cc1nc(-c2ccccn2)no1,-7.74%
22,O/N=C(\C[n+]1ccccc1)c1ccc(Br)cc1.[Br-],9.53%

row,SMILES,"hERG current change (%, negative = inhibition) at 10uM"
1,COc1ccc(-c2nn(Cc3ccccc3)cc2C(=O)NC2CC2)cc1OC,-11.9%
2,O=C(N/N=C/c1sc(N2CCOCC2)nc1-c1ccccc1)c1ccccc1O,2.57%
3,CC[C@H](C)/C=C(C)/C=C/C(=O)Cc1cc(O)c(C)c(O)c1C=O,2.93%
4,O=C(Cc1ccc(Cl)cc1)N/N=C/c1ccccc1,-1.13%
5,COc1ccc(C(CNC(=O)C2COc3ccccc3O2)N2CCCC2)cc1 (centres unmarked),-8.83%
6,CCc1nc2oc3ccccc3c(=O)c2c(=O)n1Cc1ccc(OC)cc1,-25.4%
7,COc1ccc(OCc2cc(C(=O)NCC3CCOCC3)no2)c(Cl)c1,-0.305%
8,Cn1c(CNC(=O)Cc2ccc3c(c2)OCO3)nnc1SCc1ccccc1,1.39%
9,N#CC(c1ccc(Cl)cc1)c1ncc(C(F)(F)F)cc1Cl (centres unmarked),-13.5%
10,CS(=O)(=O)N(CC(=O)NC1CC1)C1CCCCC1,15.1%
11,Cc1cc(-c2n[nH]c(=S)n2/N=C/c2ccc(Br)s2)n[nH]1,13.4%
12,CC(C)Oc1ccc(C(=O)NNC(=O)c2ccccc2C(=O)O)cc1,2.81%
13,CNc1c(NS(=O)(=O)c2cc(NC(C)=O)ccc2C)c(=O)oc2ccccc12,19.9%
14,O=C(COC(=O)/C=C/c1cccc(F)c1)Nc1ccc2[nH]c(=O)[nH]c2c1,9.96%
15,N#CCCN(C(=O)COC(=O)C1CCN(S(=O)(=O)c2cccs2)CC1)c1ccccc1,-18.1%
16,Cc1ccc(S(=O)(=O)Nc2nnc(CC(C)(C)C)s2)cc1,-1.12%
17,Cc1ccc(C(=O)N2CCc3ccccc32)cc1NC(=O)c1ccco1,-68.1%
18,Cc1cc(C)cc(NC(=O)COC(=O)COc2cccc3c2OC(C)(C)C3)c1,2.92%
19,Nc1c(C(=O)NCc2ccc3c(c2)OCO3)c2nc3ccccc3nc2n1CCCN1CCOCC1,1.46%
20,O=C(Cc1ncn[nH]1)NCCc1ccccc1,-3.77%
21,CCn1c(SCC(=O)N(C)C2CCCCC2)nc2cc(S(N)(=O)=O)ccc21,-16.4%
22,O=C(CNc1ccc(Br)cc1)c1ccc(Br)s1,23.8%

row,SMILES,"hERG current change (%, negative = inhibition) at 10uM"
1,O=C(Cc1cccs1)N1CCC(c2nc3c(nnn3Cc3ccc(F)cc3)c(=O)[nH]2)CC1,-38.9%
2,Cc1cc(C)cc(NC(=S)NCCCO)c1,-0.803%
3,COc1cc2c(=O)n(Cc3ccccc3)c(=O)n(CC(=O)NCC3CCCO3)c2cc1OC (centres unmarked),-13.1%
4,CCn1c(SCC(=O)Nc2ccc(C)cc2)nc(O)cc1=O,15.8%
5,Cc1ccc(NC(=O)c2cc(S(=O)(=O)N3CCOCC3)c(Br)s2)cc1,18%
6,CC(C)(C#N)NC(=O)C(=O)c1c(-c2ccccc2)cc2ccccn12,0.544%
7,CC(=O)N1CCN(CC(O)COc2ccc(Br)cc2)CC1.O=C(O)C(=O)O (centres unmarked),-10.7%
8,O=C(c1cc(-c2ccccn2)nc2ccccc12)N1CCN(c2ncccn2)CC1,-6.84%
9,O=C(O)c1ccccc1N1C(=O)c2cccc3cccc(c23)C1=O,-1.39%
10,CCCCOc1cc(C)nc(NCc2ccccc2)n1,5.5%
11,CCOc1ccc(NC(=S)N(CCN2CCOCC2)Cc2ccc3c(c2)CCCN3CC)cc1,-7.8%
12,CCC(CC)COC(=O)C1=C(C)NC(=O)NC1c1ccccc1Br (centres unmarked),20.7%
13,Cc1nc2nc(Cc3ccccc3)[nH]n2c(=O)c1Cl,11.8%
14,O=C(Cn1c(=O)c2c(ncn2Cc2ccccc2)n(Cc2ccccc2)c1=O)N1CCc2ccccc21,-0.223%
15,CC1CN(C(=O)c2cc(F)c(F)cc2Cl)CC(C)O1 (centres unmarked),6.44%
16,CC(C)CNC(=O)COC(=O)c1ccccc1OCC(=O)Nc1ccc(Br)cc1,7.3%
17,CC(C(=O)Nc1ccc2c(c1)OCO2)n1cnc2c1c(=O)n(C)c(=O)n2C (centres unmarked),-1.4%
18,COc1cccc(C(=O)Nc2c3c(nn2-c2ccccc2C)CS(=O)C3)c1OC (centres unmarked),2.14%
19,CCCOc1ccc(C(C(=O)OCCN(CC)CC)c2ccccc2)cc1.O=C(O)C(=O)O (centres unmarked),-43%
20,CCN1CCN(C(=O)/C=C\C(=O)O)CC1,11.3%
